These results are taken from PubChem BioAssay AID488969 (Vanderbilt High Throughput Screening Facility, 2010).

Over roughly 110,000 compounds, “z-score” has its median near -0.1; the highest 2% begin near 2. This is one part of the list. Active and inactive are the calls of the source.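 Rule for the calls: active = z-score in the third read window above 3 or below -3; inactive = the rest.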

This experiment addresses Metabotropic glutamate receptor 8 (Rattus norvegicus) (UniProt P70579). In words: mGluR8 Gi/Go-coupled signaling modulation – cell-based, rat, thallium flux, HTS, primary screen (AID 488969). As to conditions: HEK293 rat mGluR8, GIRK (G protein-gated inwardly rectifying potassium channel) thallium flux, FluoZin2; at 10 µM; stronger effect = higher value; submaximal glutamate (EC20) added with thallium.
Chain of UniProt P70579 (P70579 whole entry, looked up): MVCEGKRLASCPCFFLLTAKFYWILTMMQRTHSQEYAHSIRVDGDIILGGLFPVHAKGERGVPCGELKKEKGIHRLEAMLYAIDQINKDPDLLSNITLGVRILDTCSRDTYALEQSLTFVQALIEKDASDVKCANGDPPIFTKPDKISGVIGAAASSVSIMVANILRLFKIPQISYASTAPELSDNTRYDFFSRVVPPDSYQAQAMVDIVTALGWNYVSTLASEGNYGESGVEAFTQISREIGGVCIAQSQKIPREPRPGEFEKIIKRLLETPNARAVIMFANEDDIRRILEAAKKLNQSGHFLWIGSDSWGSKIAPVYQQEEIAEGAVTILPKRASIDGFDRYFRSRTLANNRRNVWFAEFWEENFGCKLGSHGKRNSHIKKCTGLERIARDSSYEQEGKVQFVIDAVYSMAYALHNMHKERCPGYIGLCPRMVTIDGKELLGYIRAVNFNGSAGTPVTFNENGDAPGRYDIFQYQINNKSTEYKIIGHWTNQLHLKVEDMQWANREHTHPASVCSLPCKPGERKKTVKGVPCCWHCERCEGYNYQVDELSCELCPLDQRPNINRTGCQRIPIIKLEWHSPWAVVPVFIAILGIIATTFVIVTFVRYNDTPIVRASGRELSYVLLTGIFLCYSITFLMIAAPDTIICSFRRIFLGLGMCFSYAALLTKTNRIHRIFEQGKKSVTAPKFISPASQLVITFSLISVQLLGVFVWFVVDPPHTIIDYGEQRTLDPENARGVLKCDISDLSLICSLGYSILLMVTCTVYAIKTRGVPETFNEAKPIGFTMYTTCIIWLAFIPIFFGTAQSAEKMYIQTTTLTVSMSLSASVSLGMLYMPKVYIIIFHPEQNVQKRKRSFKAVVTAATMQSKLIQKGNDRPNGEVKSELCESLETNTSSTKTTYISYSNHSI
On to `CCOc1ccccc1N=C1NC(=O)CS1`, for which the z-score is -0.466.
Turning to `COc1ccccc1CNC(=S)NCCc1ccccc1`, the z-score was -0.133.
Then `O=c1c2c([nH]c3ccccc13)CCCCCC2`, with -0.0329.
Then `O=C(Nc1cccc2nsnc12)c1cccs1`, with -0.327; and `CCOC(=O)/C(=C\c1cccnc1)C(=O)c1cc(C(C)=O)c(Nc2ccccc2)s1`, with -0.624; and `COC(=O)C(CCSC)NC(=O)CNS(=O)(=O)c1ccc(Cl)cc1` (configuration not stated), with -0.63.
In the case of `O=C(NC(=S)Nc1ccccc1N1CCCC1)c1ccccc1[N+](=O)[O-]` it was active: 7.29.
Take `O=C(O)c1ccc(CN(c2ccccn2)S(=O)(=O)c2ccccc2)cc1`: the z-score is -0.675.
In the case of `N#C/C(=C\c1ccccc1C(F)(F)F)C(=O)Nc1ccccc1` it was -0.135; in that of `O=C(O)CC(C(=O)O)c1cn(Cc2ccccc2)c2ccccc12` (configuration not stated), -0.217; in that of `CN1CCc2nc(SCc3ccc(C(C)(C)C)cc3)c(C#N)cc2C1`, -0.00419.
The compound `Cc1onc(-c2ccccc2Cl)c1C(=O)Nc1cccc2nsnc12` displayed a z-score of 1.17.
Then `Cc1nc2ncnn2c(C)c1CCC(=O)Nc1csc(N)n1`, with -0.0552; and `Cc1cc(C(=O)Nc2sc(C)c(C)c2C#N)c(C)o1`, with 1.02.
In turn, `Cc1sc2nc(SCC(=O)N(C)Cc3ccccc3)n(-c3ccccc3)c(=O)c2c1C` gave a z-score of -0.0809.
Then `O=C(Nc1ccccc1Cl)N(Cc1nc2ccccc2c(=O)[nH]1)Cc1cccs1`, with -0.163; and `Nc1cccc(-c2nc3ccccc3[nH]2)c1`, with 0.485; and `Cc1nn(Cc2ccccc2)c(C)c1NC(=O)CSc1nc(-c2ccccc2)nc2c1cnn2-c1ccccc1`, with -0.911.
Then `CCN1CCN(C(C)C(=O)Nc2c(C)n(C)n(-c3ccccc3)c2=O)CC1` (configuration not stated), with -0.129; and `COc1ccc2cc(C(=O)Nc3ccc(F)cc3)sc(=O)c2c1OC`, with 0.534; and `Cn1cc(/C=C(\C#N)C(=O)Nc2ncc(Cc3cccc(Cl)c3)s2)c2ccccc21`, with -2.38.
Then `CCOC(=O)c1cnc(-c2ccccc2)nc1Oc1ccc(Cl)cc1`, with -0.241; and `O=C(NCCCN1CCCCCC1)c1ccc(CS(=O)(=O)Cc2ccccc2F)o1`, with -0.0242.
Turning to `COc1cc(NC(=O)c2ccc(CNc3c(N4CCOCC4)c(=O)c3=O)cc2)cc(OC)c1`, the z-score was found to be 0.0157.
Then `COc1ccc(C(=O)Nc2ccc(-c3ccc(C)o3)cc2)cc1S(=O)(=O)N1CCOCC1`, with 0.146; and `O=C(NCCc1ccc(Cl)cc1)C1CCN(S(=O)(=O)c2cccc3nonc23)CC1`, with 0.395.
In the case of `Cc1cc2oc(=O)cc(COC(=O)Cn3cnnn3)c2cc1C(C)C` it was 1.41; in that of `CCO/C(C)=N/n1c2nc3ccccc3nc2c2c(=O)n(Cc3ccccc3Cl)c(C)nc21`, -0.242.
`CC(C)N(C(=O)CSc1nnc(CN2CCCCCC2=O)n1-c1ccccn1)C(C)C`: the z-score came to 1.02.
Then `Cc1ccc(NC(CC(=O)c2ccccc2)c2ccc(F)cc2)cc1` (configuration not stated), with -0.179; and `COc1cccc(-n2c(SCC#N)nnc2-c2cnccn2)c1`, with -0.0135; and `Cc1ccc(-c2noc(=O)n2CC(=O)Nc2ccc(S(=O)(=O)NC3CC3)cc2)cc1`, with 0.203.
In the case of `O=C(CC1S/C(=N/N=C/C=C/c2ccccc2)NC1=O)Nc1ccc(Cl)c(Cl)c1` (configuration not stated) it was 0.281; in that of `C=CCc1cccc2cc(C(=O)NC)c(=O)oc12`, -0.419.
Compound `CCN(CC)c1ccc(/C=N/NC(=O)C(O)(c2ccccc2)c2ccccc2)o1` gave a z-score of -0.965.
Then `Cc1ccc(/C=C2/CCc3c([nH]c4ccccc34)C2=O)cc1`, with 0.107.
Then `COCCCn1c(SCC(=O)Nc2cccc(C)n2)nnc1-c1ccco1`, with -0.45; and `CCCn1c2c(c(O)c(C(=O)Nc3ncccc3O)c1=O)CCCC2`, with -2.32.
In the case of `Cc1ccc(S(=O)(=O)NC(=O)Nc2cc(C)ccc2F)cc1` it was -0.0823; in that of `Cc1cc(Br)ccc1NC(=O)CN1C(=O)CCC1=O`, -0.263.
Take `CN(C)c1ccc(C(=O)n2nnc3ccccc32)cc1`: the z-score amounted to 0.0938.
In the case of `Cn1nc(-c2ccc(Cl)cc2)c2cc(C(=O)N3CCCC3)sc21` it was -1.23; in that of `Cc1ccccc1CS(=O)(=O)c1nnc([C@H](CC(C)C)NC(=O)OC(C)(C)C)o1`, -0.321.
Then `CCN(CC)c1cc(C)c2ccccc2n1`, with 0.00451; and `O=C(Nc1ccc(N2CCCC2)c(Cl)c1)c1cccc(-c2cc3ccccc3oc2=O)c1`, with -0.0676; and `O=C(NCCN1C(=O)S/C(=C\c2ccccc2F)C1=O)C1CCN(S(=O)(=O)c2cccs2)CC1`, with -0.251.
The compound `COCCOC(=O)C1=C(C)NC(=O)NC1c1cccs1` (configuration not stated) yielded a z-score of 0.344.
Consider `COc1ccccc1NC(=O)c1ccc(COc2ccccc2OC)o1`, for which the z-score was -0.851.
Then `O=C(Nc1ccccc1C(=O)NCc1ccccc1)c1ccccc1`, with -0.543; and `CN(CC(=O)Nc1nc2ccccc2s1)S(=O)(=O)c1ccccc1`, with -0.0171.
Then `COc1cc(C2C(C#N)=C(N)OC3=C2C(=O)CCC3)ccc1OC(=O)N1CCOCC1` (configuration not stated), with 0.00682; and `O=C(Nc1ccc2c(c1)OCO2)c1c(F)cccc1F`, with 0.0857.
In the case of `CCOC(=O)Nc1ccc(S(=O)(=O)Nc2nccc(C)n2)cc1` it was -0.0787; in that of `N=c1c(S(=O)(=O)c2ccccc2)cc2c(=O)n3ccccc3nc2n1CCN1CCOCC1`, 1.1; in that of `CCN1CCN(Cc2ccc(OCc3ccccc3)c(OC)c2)CC1`, 0.958.
Take `Cn1cc([N+](=O)[O-])c(C(=O)Nc2cc(Oc3ccccc3)cc([N+](=O)[O-])c2)n1`: the z-score was -0.26.
In the case of `CCSc1nnc(N(CCC(=O)O)CCC(=O)O)s1` it was 0.825; in that of `Cn1cccc1C(=O)NC(=O)COC(=O)CNS(=O)(=O)c1ccc(Br)cc1`, -1.04; in that of `Nc1ccc(C(=O)c2ccc3c(c2)OCCO3)cc1N`, -0.846.
Compound `COc1ccc(NC(=O)c2cc(S(=O)(=O)N3CCS(=O)(=O)CC3)ccc2Cl)cc1` displayed a z-score of 0.0761.
`O=C(COC(=O)c1ccc(S(=O)(=O)N2CCCC2)cc1)NCc1ccccc1` came in with a z-score of -0.183.
In the case of `COc1ccc(CCNC(=O)c2cc(-c3cccs3)on2)cc1OC` it was -0.0843; in that of `Fc1ccccc1-c1ccc(/C=N/Nc2nc3ccccc3[nH]2)o1`, -0.161.
In the case of `COc1cccc(CNC(=O)C2CCCN(S(=O)(=O)c3cnc[nH]3)C2)c1` (configuration not stated) it was 0.0203.
In turn, `COc1ccc(Cn2c(=O)[nH]c3cc(C(=O)NCCCN4CCCCC4)ccc3c2=O)cc1` had a z-score of 0.828.
In the case of `O=C1C(Cc2ccccc2)NC(=S)N1c1ccccc1` (configuration not stated) it was -0.257.
The compound `COCCn1c(SCC(=O)Nc2ccc(C)cc2)nc2c(oc3ccccc32)c1=O` came in with a z-score of -0.163.
Then `CC(=O)c1ccc(NC(=O)CCc2c(C)nc3ncnn3c2C)cc1`, with -0.144; and `CC1CCc2nc(NC(=O)C3CC3)sc2C1` (configuration not stated), with 0.198.
On to `COc1ccc(N(CC(=O)N2CCc3ccccc32)S(=O)(=O)c2c(C)noc2C)cc1`, for which the z-score was -1.01.
In the case of `COc1ccc(-c2noc(Cc3ccc(Cl)cc3)n2)cc1OC` it was -0.486; in that of `COc1ccc(S(=O)(=O)NC(CC(=O)NCc2ccc3c(c2)OCO3)c2ccco2)cc1` (configuration not stated), -0.513.
In the case of `CC(=O)Nc1ccc(S(=O)(=O)N2CCN(C3CCCCCCC3)CC2)cc1` it was -0.0271; in that of `O=C(O)c1ccc(OCc2occc2C(=O)O)cc1`, -0.0351.
In the case of `CCCCCc1ccc(CC(=O)O)cc1` it was -0.425; in that of `Cc1cccc(/C(N)=N/OC(=O)N2CCOCC2)c1`, -0.129; in that of `COc1ccc(S(=O)(=O)N(Cc2cc3cc(C)ccc3[nH]c2=O)CC2CCCO2)cc1` (configuration not stated), -0.169.
Compound `Cc1csc(N(C(=O)c2ccc(S(=O)(=O)N(C)C)cc2)c2ccccc2)n1` came in with a z-score of 0.4.
In the case of `C=CCn1c(=O)c2ccccc2n2c(SCC(=O)Nc3sc(C(=O)N(CC)CC)c(C)c3C(=O)OCC)nnc12` it was -0.785; in that of `CCOc1cc(C(=O)Nc2ncccn2)cc(OCC)c1OCC`, 0.196.
The compound `CC(=O)c1c(C)nc2ccc(Cl)cn12` displayed a z-score of -0.33.
Take `COc1ccc(S(=O)(=O)N2CCOCC2)cc1C(=O)Nc1nc2ccccc2s1`: the z-score was -0.183.
Then `Cc1ccc(S(=O)(=O)N[C@H](C(=O)N2CCC(C(=O)NCC(=O)O)CC2)C(C)C)cc1`, with 0.891; and `COC(=O)Cc1ccc(NC(=S)N2CCN(c3ccc(OC)cc3)CC2)cc1`, with -0.0129; and `COc1ccc(CN2CC(C(=O)NCCN3CCN(c4ccccc4F)CC3)CC2=O)cc1` (configuration not stated), with 0.0541.
Then `COc1cc(NC(=O)c2cccs2)cc(OC)c1`, with -0.15; and `CCCNCC(O)Cn1c2ccccc2n2c(=O)cc(C)c(C#N)c12` (configuration not stated), with 0.0963.
In the case of `COc1ccc(NC(=O)C2CCCN(S(=O)(=O)c3cccc4nonc34)C2)cc1` (configuration not stated) it was 0.00602; in that of `COc1ccc(OC)c(S(=O)(=O)n2nc(-c3ccccc3)cc2N)c1`, 0.545; in that of `CCOC(=O)N1CCN(CCC(=O)Nc2ccc(Br)cc2)CC1`, -0.291.
`COc1cc(OC)c(C2C(C#N)=C(N)Oc3cc(C)n(CCCN4CCOCC4)c(=O)c32)cc1OC` (configuration not stated): the z-score is -0.246.
In the case of `NC(=S)N/N=C/c1ccc(-c2cccc([N+](=O)[O-])c2)o1` it was 0.41; in that of `CCOC(=O)c1ccc(-n2c(C)nc3c(cnn3-c3ccccc3Cl)c2=O)cc1`, -0.636.
Then `COc1ccc(-c2cc(C(=O)Nc3c(C)nn(Cc4ccc(Cl)cc4)c3C)no2)cc1`, with -0.456; and `O=c1nc(C(F)(F)F)nc2ccccn12`, with -0.00835; and `CCOC(=O)CNC(=O)Cn1cnc2c(nnn2-c2ccc(F)cc2)c1=O`, with -0.338.
In the case of `O=C(Nc1nc(-c2ccccc2)cs1)C1COc2ccccc2O1` (configuration not stated) it was 1.23; in that of `Nc1ccc(-n2cnc3cc([N+](=O)[O-])ccc32)cc1`, -0.118; in that of `CCCOc1ccc(-c2c(=O)n(OCc3ccc([N+](=O)[O-])cc3)c3ccccc3[n+]2[O-])cc1`, 0.221.
`COc1ccc(N(C(=O)CCl)C(C)(C(=O)Nc2c(C)cccc2C)c2ccccn2)cc1` (configuration not stated) returned a z-score of -0.277.
In the case of `CC(=O)Nc1ccc(S(=O)(=O)N(C)CC(=O)OCC(=O)NC(C)C23CC4CC(CC(C4)C2)C3)cc1` (configuration not stated) it was -0.181; in that of `C=CCN1C(=O)/C(=C\c2ccc(C)cc2)N=C1SCC(=O)NCCC`, -0.81.
Then `COC(=O)c1cc(NC(=O)Nc2ccccc2)ccc1Cl`, with -0.321; and `CCCC(=O)c1ccc(-c2ccccc2)cc1`, with 0.29.
Then `c1ccc(OCCCn2nnc(-c3cccnc3)n2)cc1`, with -0.0922; and `CCC1CCCCN1CCNC(=O)c1[nH]c(C)c(C(C)=O)c1C` (configuration not stated), with 0.00481.
Compound `CCN(CC)S(=O)(=O)c1ccc2oc(C(=O)NCc3ccc(C)cc3)c(C)c2c1` yielded a z-score of -0.591.
